Measured values reported in article PMC4336329 (PLoS ONE, 2015).
About 2,200 (0.71%) of roughly 310,000 compounds showed an effect of 50% or more. The effect is printed as a negative number. Some of the results follow.

What follows are compounds tested against human ether-à-go-go-related gene (hERG) potassium channel (human, UniProt Q12809) (assay: primary screen, population patch clamp on CHO cells stably expressing hERG).
human ether-à-go-go-related gene (hERG) potassium channel, sequence (Q12809 whole entry, looked up): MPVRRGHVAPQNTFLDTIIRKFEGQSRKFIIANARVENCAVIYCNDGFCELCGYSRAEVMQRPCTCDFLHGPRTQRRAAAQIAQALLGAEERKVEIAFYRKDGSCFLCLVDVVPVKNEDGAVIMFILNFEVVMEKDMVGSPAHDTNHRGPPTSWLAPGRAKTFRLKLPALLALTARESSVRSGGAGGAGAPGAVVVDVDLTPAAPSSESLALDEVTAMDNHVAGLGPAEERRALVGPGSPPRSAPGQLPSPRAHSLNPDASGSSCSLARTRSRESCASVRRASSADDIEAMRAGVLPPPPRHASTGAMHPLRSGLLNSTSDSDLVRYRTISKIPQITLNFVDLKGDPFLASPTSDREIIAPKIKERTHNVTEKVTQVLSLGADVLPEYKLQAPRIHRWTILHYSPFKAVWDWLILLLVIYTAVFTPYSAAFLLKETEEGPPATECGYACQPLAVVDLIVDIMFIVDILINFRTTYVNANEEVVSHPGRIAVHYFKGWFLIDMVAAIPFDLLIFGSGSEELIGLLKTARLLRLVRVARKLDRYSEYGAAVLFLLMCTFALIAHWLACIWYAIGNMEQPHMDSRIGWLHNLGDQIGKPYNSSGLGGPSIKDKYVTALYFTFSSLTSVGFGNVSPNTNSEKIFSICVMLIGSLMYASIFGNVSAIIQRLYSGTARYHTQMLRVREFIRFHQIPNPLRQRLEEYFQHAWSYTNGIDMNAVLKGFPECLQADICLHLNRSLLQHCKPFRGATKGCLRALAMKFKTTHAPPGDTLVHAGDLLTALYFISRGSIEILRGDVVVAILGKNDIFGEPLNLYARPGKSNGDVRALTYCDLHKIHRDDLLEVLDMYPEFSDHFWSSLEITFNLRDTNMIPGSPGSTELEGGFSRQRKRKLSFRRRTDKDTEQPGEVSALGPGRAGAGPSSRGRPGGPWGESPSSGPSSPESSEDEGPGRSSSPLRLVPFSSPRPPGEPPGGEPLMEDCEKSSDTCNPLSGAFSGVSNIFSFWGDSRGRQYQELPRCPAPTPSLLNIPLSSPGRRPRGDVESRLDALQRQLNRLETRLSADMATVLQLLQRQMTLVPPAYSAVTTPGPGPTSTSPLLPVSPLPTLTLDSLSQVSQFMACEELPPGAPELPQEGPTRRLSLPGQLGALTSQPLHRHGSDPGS

Row | Compound | hERG current change (%, negative = inhibition) at 1uM [%]
1 | Cc1ccc(N(CC(=O)N/N=C/c2ccc(OC3CSC3)cc2)S(=O)(=O)c2ccccc2)cc1 | 0.363
2 | Cc1ccc(-c2c[n+](CC(=O)c3cccs3)c3n2CCC3)cc1.[Br-] | 9.96
3 | Cc1ccc(CN2CCN(CCCc3ccccc3)CC2CCO)cc1 (centres unmarked) | -68.7
4 | CCC(=O)Nc1cccc(C2=NOC3(C2)C[C@@H](C(N)=O)N(C(=O)c2ccc(OC)cc2)C3)c1 (some centres unmarked) | 6.65
5 | COCCCNC(=S)NNC(=O)c1cc(-c2cccnc2)nc2ccccc12 | 0.755
6 | O=C1CCN(CCCc2ccccc2)CCN1[C@H](CO)Cc1ccccc1 | -12
7 | CC(C)(C)c1nnc(N/N=C/c2ccccc2O)n(N)c1=O | 4.42
8 | COC(=O)C12CCC3(SCCS3)C(C(=O)OC)(CCC13SCCS3)C2 | 0.0895
9 | Cc1cc(C)n(-c2nc3ccccc3nc2N2CCCCCC2)n1 | 14.4
10 | Cc1ccc(S(=O)(=O)N2[C@@H](c3ccccc3)C(C(=O)O)=CC[C@H]2c2ccc(Cl)cc2)cc1 | 14.7
11 | COc1cc(C2NC(=O)NC(C)=C2C(=O)OC(C)C)ccc1OC(=O)c1ccco1 (centres unmarked) | 12.7
12 | CC1CCCCN1C(=O)c1ccc(OC2CCN(S(=O)(=O)N(C)C)CC2)cc1 (centres unmarked) | -6.39
13 | COc1ccc(N(Cc2cc3cccc(C)c3[nH]c2=O)S(=O)(=O)c2ccc(OC)cc2)cc1 | 9.73
14 | CCCCNC(=O)OCCNC(=O)NC | 10.7
15 | O=C(O)CC(CNS(=O)(=O)c1ccccc1)c1ccccc1 (centres unmarked) | 16.9
16 | CC(Oc1ccc2c3c(c(=O)oc2c1)CCCC3)C(=O)NCc1ccncc1 (centres unmarked) | 16.3
17 | Cc1cccc(NC(=O)c2ccccc2NC(=O)CCC(=O)O)c1 | -0.152
18 | CC(=O)Nc1ccc(N(CC(=O)NCC2CCCO2)C(=O)CCC(=O)Nc2cc(C)on2)cc1 (centres unmarked) | 9.05
19 | Cc1sc2nc(CSCC(=O)N(C)CC(=O)Nc3ccc(F)cc3)[nH]c(=O)c2c1C | 11.3
20 | Cc1ccc(C(=O)CC(=O)c2ccc(C(C)(C)C)cc2)cc1 | 11.1
21 | CCC1Nc2ncnc(N3CCN(c4ccccc4)CC3)c2N(Cc2ccc(OC)cc2)C1=O.O=C(O)C(F)(F)F (centres unmarked) | 9.63
22 | COc1ccc(S(=O)(=O)NCC2CCCN(Cc3cccc(C(C)=O)c3)C2)cc1 (centres unmarked) | 6.25
23 | COc1ccc2nc(NC(=O)CSC3=NCCS3)sc2c1 | 8.05

Row | Compound | hERG current change (%, negative = inhibition) at 1uM [%]
24 | COc1cccc(C(=O)Nc2c(F)c(F)c(F)c(F)c2F)c1 | 7.88
25 | CCN1C(=O)C2(C(C#N)=C(N)Oc3n[nH]c(COC)c32)c2ccccc21 (centres unmarked) | 3.24
26 | CCOc1ccc(N2C(=O)CC(NC3CCN(C(=O)c4cccc(Cl)c4)CC3)C2=O)cc1 (centres unmarked) | 7.34
27 | Cn1c(=O)c2[nH]c(N3CCN(c4cccc(O)c4)CC3)nc2n(C)c1=O | 16.9
28 | CN=C1SC(CC(=O)Nc2cccc(C(F)(F)F)c2)C(=O)N1C (centres unmarked) | -0.689
29 | O=C(COc1ccc(Cl)cc1)NCCN1CCCCC1 | -1.49
30 | CC(C)(C)NC(=O)NC(=O)COC(=O)Cc1c(Cl)cccc1Cl | 10.1
31 | COc1cccc(NC(=O)CN(C2=NC3CS(=O)(=O)CC3S2)c2cccc(C)c2)c1 (centres unmarked) | 0.133
32 | O=C(O)CCn1nc(-c2ccc(F)cc2)cc(Cc2ccccc2)c1=O | 10.2
33 | O=C(CNC(=O)c1ccco1)N/N=C/c1ccccc1[N+](=O)[O-] | 13.7
34 | CCOC(=O)CC(NC(=O)c1ccc(C)cc1)c1ccc(OC)cc1 (centres unmarked) | 6.79
35 | Cc1cccc(N2CCN(CCCNC(=O)c3ccc(NC(=O)C4=CSCCO4)cc3)CC2C)c1 (centres unmarked) | 11.3
36 | Cc1cc(S(=O)(=O)N2CCOCC2)ccc1OCC(=O)N1CCCCC1 | 14.9
37 | NC1=NC(=O)C(CC(=O)NCc2ccccc2)S1 (centres unmarked) | 13.7
38 | CCN=C1SC(CC(=O)NCC)C(=O)N1CC (centres unmarked) | -6.35
39 | COc1ccc(NC(=S)N2CCCN(Cc3cc(C)ccc3C)C2)cc1 | 7.85
40 | Cc1ccc2ncc([N+](=O)[O-])n2c1 | 6.16
41 | COC(=O)c1ccccc1NC(=O)CSc1nnc(-c2ccncc2)o1 | 10.8
42 | Cc1ccc(C(=O)NC2CCN(C(=O)N3CCOCC3)CC2)cc1 | 5.1
43 | O=C(COC(=O)CCCC1=NS(=O)(=O)c2ccccc2N1)Nc1ccccc1 | 19.2
44 | CCOC(=O)c1ccc(NC(=O)CC2C(=O)N(c3ccc(F)cc3)C(=O)N2CCC(C)C)cc1 (centres unmarked) | 2.19
45 | O=C1CC(Sc2nnnn2-c2ccccc2)C(=O)N1c1cccc(Cl)c1 (centres unmarked) | 8.11
46 | Cc1occc1-c1nnc(SCC(=O)Nc2ccccc2)n1C(C)c1ccccc1 (centres unmarked) | 1.46

Row | Compound | hERG current change (%, negative = inhibition) at 1uM [%]
47 | Cc1cc(NC(=O)NC(=O)c2cccc(OC(F)(F)C(F)F)c2)n[nH]1 | 5.74
48 | CCCC(=O)Nc1ccc2c(c1)C(=O)N(CCC(=O)O)C2=O | 3.16
49 | O=C(CC1Nc2ccccc2NC1=O)NCCCN1CCCCCC1 (centres unmarked) | 7.59
50 | N#C/C(=C\c1c[nH]c2ccc(Br)cc12)c1ccccn1 | 21.1
51 | CCc1ccccc1NC(=S)N(CCN1CCCCC1)Cc1ccco1 | -5.08
52 | Cc1ccc(NC(=S)NC(=O)c2ccc(F)cc2)cc1S(=O)(=O)Nc1ccccc1Cl | -3.96
53 | CC(C)(C)c1ccc(C(=O)NCCOc2ccccc2)cc1 | 8.32
54 | CCc1cc(C(=O)Nc2ccccc2)cs1 | -1.52
55 | O=C(Nc1ccccc1F)Nc1cc(Cl)ccc1-n1cncn1 | 14.5
56 | Cc1onc(-c2ccccc2)c1C(=O)NCCc1ccc(S(N)(=O)=O)cc1 | 10.5
57 | Cc1ccccc1NC(=O)Cn1nc(C)c2ccccc2c1=O | 10.9
58 | COc1ccc2nc(SCC(=O)N(C)C3CCCCC3)[nH]c2c1 | 12.6
59 | C/C(=N\NC(=O)Cc1cccc2ccccc12)c1ccncc1 | 2.97
60 | CCn1nc(C)cc1C(=O)OCC(=O)c1ccc(Cl)cc1 | 7.13
61 | COc1cc(OC)cc(C(=O)Oc2ccc(/C=N/Nc3nc4ccccc4s3)cc2OC)c1 | 0.482
62 | COc1ccc(-c2[nH]ncc2CN(CCO)Cc2cccs2)c(F)c1 | 5.85
63 | Cc1cccc(C(=O)NC2CCN(C(=S)NCc3ccco3)CC2)c1 | -6.66
64 | O=C(CCl)Nc1ccc2c(c1)OCO2 | 10.3
65 | O=C(COc1ccc(S(=O)(=O)N2CCOCC2)cc1Cl)NCCN1CCOCC1 | 11.9
66 | O=C(Nc1ccc(CN2CCS(=O)(=O)CC2)cc1)c1ccccc1 | 10.3
67 | Cc1cc(C(=O)N/N=C/c2cn[nH]c2-c2ccccc2)cs1 | 1.1
68 | Cc1ccc(NC(=O)C2COc3ccccc3O2)nc1 (centres unmarked) | 10.5
69 | Cc1nc2ccccc2n1CC(=O)N/N=C/c1cccnc1 | 8.32

Row | Compound | hERG current change (%, negative = inhibition) at 1uM [%]
70 | O=C(NC(=S)NC1CCSC1=O)c1cccc([N+](=O)[O-])c1 (centres unmarked) | 15.1
71 | Cc1nc2ccccc2n1CCc1ccccc1 | 3.48
72 | Cc1ccnc(N2CCC(C(=O)NCc3ccccc3F)CC2)n1 | 13.8
73 | CC1(C)CC(=O)c2c(O)cc(OCC(=O)N3CCN(c4ccc(F)cc4)CC3)cc2O1 | -7.25
74 | CC1CCc2cc(F)ccc2N1C(=O)CCC(=O)O (centres unmarked) | 6.02
75 | O=C(CN1C(=O)S/C(=C\C=C\c2ccccc2)C1=O)Nc1cccc(O)c1 | -2.27
76 | CCOC(=O)c1c(NC(=O)CSc2nnc(N)s2)sc(C)c1-c1ccc(C)cc1 | 15
77 | Cc1nn(-c2ccccc2)c(-c2ccccc2)c1C(=O)O | 7.3
78 | COc1ccc(C(C(=O)NC2CCCC2)N(CCN(C)C)C(=O)c2snc(C(N)=O)c2N)cc1 (centres unmarked) | -9.1
79 | Cc1cc(Cl)ccc1OCC(=O)NNC(=O)c1cccs1 | 15
80 | CSCCC(NS(=O)(=O)c1ccc(Cl)cc1)C(=O)OCC(=O)N1CCOCC1 (centres unmarked) | -3.72
81 | CC1CCC(NC(=S)NCCN(C)C)CC1 (centres unmarked) | 13.4
82 | O=C1/C(=C/c2cccc(Br)c2)SC(=S)N1CCC(=O)N(CCO)c1ccccc1 | 13.6
83 | Cc1c(NC(=S)NC(=O)C(C)(C)C)cccc1[N+](=O)[O-] | 5.79
84 | CCOc1ccc(CCNC(=O)c2cnc(C)cn2)cc1OCC | 8.1
85 | O=C(c1cc(-c2ccccc2O)on1)N1CCCCCC1 | -35.2
86 | CCOc1cc(/C=C2\SC(=O)N(CC(=O)Nc3ccccc3F)C2=O)cc([N+](=O)[O-])c1O | 10.2
87 | COc1ccccc1N1CCN(CC(=O)Nc2nccs2)CC1 | 1.33
88 | O=C(COc1ccc2ccc(=O)oc2c1)Nc1ccc2c(c1)OCCO2 | -0.116
89 | CC(=O)Nc1ccc(S(=O)(=O)NCCc2ccccc2)cc1 | 7.12
